The record followed here is patent US10023601B2, “Hydrolysis resistant sialic acid derivatives and methods for their use” (The University of British Columbia, priority 2014, dated 2018).

The target in test [1] is T1, Cst-I (Campylobacter jejuni, UniProt Q9RGF1). It counts as biochemical, C. jejuni.
Test [2] concerns the target T1, Cst-I.
Test [3] has as its target T2, Pm0188h (Pasteurella multocida, UniProt Q15KI8).
T2 sequence (Q15KI8 26-412): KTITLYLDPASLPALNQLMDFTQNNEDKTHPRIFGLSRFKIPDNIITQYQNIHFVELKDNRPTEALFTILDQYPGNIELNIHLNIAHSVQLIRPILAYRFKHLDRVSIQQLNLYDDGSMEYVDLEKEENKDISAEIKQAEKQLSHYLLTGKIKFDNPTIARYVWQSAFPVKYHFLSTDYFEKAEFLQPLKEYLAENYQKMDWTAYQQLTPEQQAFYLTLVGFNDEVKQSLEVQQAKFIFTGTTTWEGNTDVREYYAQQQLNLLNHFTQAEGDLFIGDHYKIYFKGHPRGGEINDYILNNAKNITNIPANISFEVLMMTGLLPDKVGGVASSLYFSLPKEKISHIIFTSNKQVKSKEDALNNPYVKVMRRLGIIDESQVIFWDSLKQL
Briefly: Sialyltransferase kinetics, CMP release assay, transfer to lactose by Pm0188h. Conditions: for kcat: donor substrate, transfer to lactose, 37° C., pH 8.5.

The target of test [4] is Pasteurella enzyme (Pasteurella multocida, UniProt Q15KI8).

Molecules are shown by their SMILES. Counter-ions that a name gives are not always drawn.

T1 sequence (Q9RGF1 1-285 limits assumed): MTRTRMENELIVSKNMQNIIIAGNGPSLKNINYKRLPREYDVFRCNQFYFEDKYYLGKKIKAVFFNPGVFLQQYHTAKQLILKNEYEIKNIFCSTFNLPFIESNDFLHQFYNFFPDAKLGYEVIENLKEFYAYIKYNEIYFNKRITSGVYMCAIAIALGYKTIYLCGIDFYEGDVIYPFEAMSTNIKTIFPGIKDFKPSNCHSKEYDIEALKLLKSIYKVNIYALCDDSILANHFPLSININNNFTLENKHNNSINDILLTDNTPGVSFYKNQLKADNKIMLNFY

`CC(=O)N[C@H]1[C@H]([C@H](F)[C@H](O)CO)O[C@](OP(=O)(O)OC[C@H]2O[C@@H](n3ccc(N)nc3=O)[C@H](O)[C@@H]2O)(C(=O)O)C[C@@H]1O` [compound 14, 5-Acetamido-3,5,7-trideoxy-2-(hydrogen 5′-cytidylate)-7-fluoro-D-glycero-b-D-galacto-2-nonulopyranosidic acid diammonium salt]: the “transfer of donor to BODIPY-lactose (TLC)” value in test [1] is “complete transfer”. Further, the “enzymatic coupling to aryl β-galactosides (oNP, MU)” value (from here on “enzymatic coupling”) in test [2] was “worked well”. In test [3], the kcat (as a rule, the maximal rate divided by the concentration of active sites) amounted to 99 s⁻¹.
As to `CC(=O)N[C@H]1[C@H]([C@H](O)[C@H](O)CO)O[C@](OP(=O)(O)OC[C@H]2O[C@@H](n3ccc(N)nc3=O)[C@H](O)[C@@H]2O)(C(=O)O)C[C@@H]1O` [compound 16, CMP-NeuNAc, reference compound], the “transfer of donor to BODIPY-lactose (TLC)” value in test [1] is recorded as “complete transfer”. Besides, the “enzymatic coupling” value in test [2] is recorded as “worked well”. Further, the turnover number (kcat) in test [3] was 182 s⁻¹.
As to `CC(=O)N[C@H]1[C@H](C(F)(F)[C@H](O)CO)O[C@](OP(=O)(O)OC[C@H]2O[C@@H](n3ccc(N)nc3=O)[C@H](O)[C@@H]2O)(C(=O)O)C[C@@H]1O` [compound 15, 5-Acetamido-3,5,7-trideoxy-2-(hydrogen 5′-cytidylate)-7,7-difluoro-D-glycero-b-D-galacto-2-nonulopyranosidic acid diammonium salt], the “completion of transfer to BODIPY-lactose (TLC)” value in test [1] is “around 20%”. Also, the “enzymatic coupling” value in test [4] is reported as “Nor were any products obtained”. The “enzymatic coupling” value in test [2] is “no transfer products were observed”. Besides, in test [3], the “fold slower transfer than the natural donor” value is given as roughly 20 fold and the catalytic constant (kcat) was 10.0 s⁻¹.
